# Results from publication PMC4336329 (PLoS ONE, 2015).
# In all, about 310,000 compounds went through this assay and about 2,200 (0.71%) showed an effect of 50% or more. The effect is printed as a negative number. The list shows a part of the results.
# Target: human ether-à-go-go-related gene (hERG) potassium channel (human, UniProt Q12809)
# Test: primary screen, population patch clamp on CHO cells stably expressing hERG
# Chain of human ether-à-go-go-related gene (hERG) potassium channel (Q12809 whole entry, looked up): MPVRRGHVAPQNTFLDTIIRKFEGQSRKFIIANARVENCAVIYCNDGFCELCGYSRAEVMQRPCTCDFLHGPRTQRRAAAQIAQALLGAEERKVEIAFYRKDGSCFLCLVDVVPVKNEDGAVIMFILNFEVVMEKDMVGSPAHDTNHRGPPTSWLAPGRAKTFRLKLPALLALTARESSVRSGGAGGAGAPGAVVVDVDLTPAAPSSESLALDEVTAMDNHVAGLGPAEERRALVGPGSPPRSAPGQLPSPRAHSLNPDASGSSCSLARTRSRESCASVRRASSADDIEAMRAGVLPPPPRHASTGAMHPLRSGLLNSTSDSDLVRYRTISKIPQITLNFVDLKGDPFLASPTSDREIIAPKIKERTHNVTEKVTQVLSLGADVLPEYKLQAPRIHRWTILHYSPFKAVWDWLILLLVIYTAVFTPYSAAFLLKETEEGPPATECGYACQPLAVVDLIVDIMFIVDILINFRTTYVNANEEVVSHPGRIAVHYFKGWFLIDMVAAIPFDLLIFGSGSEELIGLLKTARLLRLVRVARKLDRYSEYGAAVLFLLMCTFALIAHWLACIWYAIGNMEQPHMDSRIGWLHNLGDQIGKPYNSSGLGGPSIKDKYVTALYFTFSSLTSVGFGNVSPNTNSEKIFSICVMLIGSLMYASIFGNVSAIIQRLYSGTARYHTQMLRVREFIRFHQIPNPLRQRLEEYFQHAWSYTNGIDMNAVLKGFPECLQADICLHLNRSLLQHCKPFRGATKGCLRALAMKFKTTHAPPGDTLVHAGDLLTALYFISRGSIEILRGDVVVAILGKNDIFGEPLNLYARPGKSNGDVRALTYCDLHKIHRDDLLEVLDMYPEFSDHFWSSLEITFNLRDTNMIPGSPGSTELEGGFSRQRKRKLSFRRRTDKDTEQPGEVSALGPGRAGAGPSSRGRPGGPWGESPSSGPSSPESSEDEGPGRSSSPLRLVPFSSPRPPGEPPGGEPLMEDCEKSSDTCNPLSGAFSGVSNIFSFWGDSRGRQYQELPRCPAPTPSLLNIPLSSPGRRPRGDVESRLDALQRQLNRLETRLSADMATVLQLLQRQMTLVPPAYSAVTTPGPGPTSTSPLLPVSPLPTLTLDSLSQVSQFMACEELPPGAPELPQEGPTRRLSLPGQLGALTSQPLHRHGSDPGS
row,Structure (SMILES),"hERG current change (%, negative = inhibition) at 1uM [%]"
1,Cc1nc(N2N=C3/C(=C/c4ccc(F)cc4)CCCC3C2c2ccc(F)cc2)sc1C(=O)N(C)C (stereo not shown),0.185
2,O=C(C1=NN(c2ccccc2)C(=O)CC1)N1CCc2ccccc2C1,17.9
3,Oc1ccc(-c2nc3ccccn3c2NCc2ccco2)cc1,4.71
4,NC(=O)C1CCN(C(=O)c2ccc(NC3=NC4CS(=O)(=O)CC4S3)cc2)CC1 (stereo not shown),12
5,O=C(CCCCCNc1nc(=S)[nH]c2ccccc12)NCCc1ccc(Cl)cc1,5.03
6,N#CCCn1cc(C(=O)Nc2ccccc2Cl)c(-c2ccc([N+](=O)[O-])cc2)n1,-44
7,Cc1c(NC(=O)COC(=O)Cc2ccc(F)cc2)c(=O)n(-c2ccccc2)n1C,4.06
8,CCCCn1c(=O)c(C(=O)NCc2ccncc2)c(O)c2ccccc21,-0.804
9,COc1ccc(CNC(=O)C(C)N(Cc2ccccc2OC)C(=O)c2snc(C(N)=O)c2N)cc1 (stereo not shown),12.1
10,Brc1ccc(OCCOc2cccc3cccnc23)cc1,9.9
11,CN1CCN(NC(=O)COc2cccc(C(F)(F)F)c2)CC1,7.45
12,Cc1cc(C)n2nc(C(=O)OCC(=O)Nc3ccc(C)c(S(=O)(=O)N(C)C)c3)nc2n1,9.98
13,O=S(=O)(c1ccc(Br)cc1)N1CCN(c2ccc3nnc(-c4ccccc4)n3n2)CC1,-7.59
14,O=C(CSc1nnc(-c2ccco2)n1CC1CCCO1)c1ccccc1 (stereo not shown),4.85
15,Cc1ccsc1/C=N/N1CCN(c2ccccn2)CC1,5.75
16,Cn1c(CC(=O)Nc2ccccc2)cc2ccccc21,16
17,COc1ccc(-c2nn(Cc3ccccc3)cc2C(=O)N2CCN(c3ncccn3)CC2)cc1,12.1
18,Clc1ccccc1N/N=C/c1ccc2c(c1)OCO2,7.24
19,CC(=O)Nc1cc(OC(C)=O)c2nonc2c1OC(C)=O,3.83
20,CCN(CC(=O)NCc1ccc(F)cc1)C(=O)/C=C/c1cccs1,-4.26
21,CC(C)=CCCC(C)CN1CCC(O)CC1 (stereo not shown),4.23
22,Brc1ccc(OCCCOc2cccc3cccnc23)cc1,14.1

row,Structure (SMILES),"hERG current change (%, negative = inhibition) at 1uM [%]"
1,O=C(CN1C(=O)c2ccccc2C1=O)N1CCN(S(=O)(=O)c2ccccc2)CC1,4.56
2,COC(=O)[C@]1(CC(C)C)N[C@H](c2ccc(-c3ccc(F)cc3)c(OC)c2)[C@@H]2C(=O)N(C)C(=O)[C@@H]21.O=C(O)C(F)(F)F,2.43
3,CNS(=O)(=O)Cc1ccc2[nH]cc(CCN(C)C)c2c1,12.5
4,Cc1ccc(NC(=O)c2ccc(S(=O)(=O)Nc3c(C)n(C)n(-c4ccccc4)c3=O)cc2)nc1,15.6
5,O=C(Oc1cncc(Cl)c1)c1sccc1Cl,10.2
6,CCCC(=O)N(C1CC(C)C(C#N)(C#N)C1(C#N)C#N)N(C)C (stereo not shown),9.61
7,Cc1ccc2c(c1)C(c1ccccc1)N(C(=O)c1ccc(S(=O)(=O)N3CCOCC3)cc1)CC(=O)N2 (stereo not shown),0.736
8,CCc1nc(N2CCN(C(C)=O)CC2)c2c3c(sc2n1)CCCC3,17.3
9,O=C(c1ccco1)N1CCN(S(=O)(=O)N2CCOCC2)CC1,10.2
10,CCOc1ccccc1C(=O)NCC(=O)OCCOc1cccc(Cl)c1,9.05
11,CC1Cn2c(nnc2-c2cccs2)S1 (stereo not shown),9.45
12,O=C(COc1ccc2c(C(F)(F)F)cc(=O)oc2c1)Nc1ccc2c(c1)OCCO2,9.7
13,O=C(NN=C1CCC(c2ccccc2)CC1)c1cc2c(s1)CCCC2 (stereo not shown),-1.87
14,COc1cc(OC)cc(-c2nnc(SCC(=O)Nc3cccc(C(=O)O)c3)s2)c1,9.97
15,O=C(CN1CCN(c2ccc(O)cc2)CC1)Nc1ccc2c(c1)OCCO2,4.85
16,O=C(/C=C\Nc1ccc2c(c1)OCO2)c1cccs1,18.5
17,Cc1noc(C)c1C(=O)OCC(=O)Nc1cccc(S(N)(=O)=O)c1,4.05
18,C[C@@H](NC(=O)[C@@H]1Cc2ccccc2CN1C(=O)OC(C)(C)C)C(=O)NCc1ccco1,8
19,Cc1cc(C)c(-c2cc(NC(=O)COC(=O)c3ccc(C#N)cc3)n(-c3ccccc3)n2)cc1C,6.15
20,Cc1cc2cc3c(cc2nc1SCC(=O)N1CCN(C(=O)c2ccco2)CC1)OCO3,-1.38
21,O=C(CCCCCn1c(=O)[nH]c2ccsc2c1=O)N1CCCCC1,11.9
22,COc1ccc(Cn2c(O)c(C=Nc3ccc(OC)cc3)c3ccccc3c2=O)cc1,12.8

row,Structure (SMILES),"hERG current change (%, negative = inhibition) at 1uM [%]"
1,Clc1ccc(C2[C@H]3CN(CC4CCCCC4)[C@H](c4ccccc4)C34CC2(c2ccccc2)C4)cn1 (stereo partly shown),10.9
2,CC(C)OP(=O)(OC(C)C)C(O)c1cccc([N+](=O)[O-])c1 (stereo not shown),13.6
3,CCOCCCNC(=S)Nc1ccc(Br)cc1Cl,1.96
4,COc1ccc(C(=O)N(C)CCCC2CCCC2)cc1OC1CCN(C(C)C)CC1,-36.1
5,COc1cccc(NC(=O)Nc2cc(NC(=O)Nc3cccc(OC)c3)c(C)nc2C)c1,16.1
6,CN(C)S(=O)(=O)c1ccc(N2CCCC2)c(C(=O)Nc2ccc(Br)cc2F)c1,9.99
7,Cc1ccc(NC(=O)NCc2ccccn2)cc1,9.87
8,COc1ccccc1C(=O)N1CCNC(=O)C1CC(=O)Nc1ccc(Cl)cc1 (stereo not shown),3.58
9,COc1ccc(/C=C/C(=O)c2ccc3c(c2)OCO3)cc1OC,1.11
10,N/C(=N\OC(=O)COc1ccc2ccccc2c1)c1ccccn1,7.41
11,CCCN(CC(=O)Nc1ccccc1C)C(=O)C1CCCN(C(=O)c2ccc(Cl)cc2)C1 (stereo not shown),4.07
12,Nc1c(-c2ccccc2)c(CN2CCOCC2)nn1-c1cccc([N+](=O)[O-])c1,-0.675
13,CCc1ccc(NC(=O)C(=O)NNC(=O)COc2cccc(OC)c2)cc1,9.6
14,COc1ccc(OCC(NS(=O)(=O)c2ccc(-n3cnnn3)cc2)C(C)C)cc1 (stereo not shown),-5.76
15,O=C(NCCc1ccccc1)C(=O)NCC1CCCN1S(=O)(=O)c1ccccc1 (stereo not shown),-2.62
16,CCOc1cc(C2C3=C(CC(C)(C)CC3=O)Nc3n[nH]c(C)c32)ccc1O (stereo not shown),5.89
17,CC1CCN(Cc2c(C(=O)N/N=C/c3cccc(Cl)c3)nnn2-c2nonc2N)CC1,18.9
18,Cc1ccccc1-n1c(=S)[nH]c2nc3c(cc2c1=O)COC(C)(C)C3,16.8
19,CCc1ccc[n+](-c2[nH]c(=O)sc2/C=N/N=C(\[O-])c2ccncc2)c1,14.9
20,NC(=O)CSc1ccc(F)cc1,29.4
21,CCOC(=O)N1CCN(C(=O)CN(c2cccc(OC)c2)S(C)(=O)=O)CC1,-6.14
22,CC1CCN(S(=O)(=O)c2ccc3ncn(CC(=O)N(C)C4CCCCC4)c(=O)c3c2)CC1,8.99

row,Structure (SMILES),"hERG current change (%, negative = inhibition) at 1uM [%]"
1,CCCC(=O)Nc1cc(OCC)c(NC(=O)NC2CCCCC2)cc1OCC,5.12
2,O=C(CNS(=O)(=O)c1ccc(Cl)cc1)NC1CCCCC1,-14.1
3,CCOC(=O)C(C(C)=O)C(c1ccc(OCCC(C)C)cc1)C(C(C)=O)C(=O)OCC (stereo not shown),12.1
4,Fc1cccc(-n2ncc(-c3nnnn3-c3ccccc3)c2C(F)(F)F)c1,-1.24
5,O=C1C=C(NCc2ccco2)CC(c2ccc(Cl)cc2)C1 (stereo not shown),-34.8
6,O=C(CC1(O)C(=O)N(Cc2ccc3c(c2)OCO3)c2ccccc21)c1ccccc1 (stereo not shown),8.97
7,Cc1ccccc1C(=O)Nc1cccc(NC(=O)c2ccc(-c3ccc(Br)cc3)o2)c1,16.5
8,COC(=O)c1ccc(NC2(C#N)C(=O)Nc3ccccc32)cc1 (stereo not shown),19.7
9,Cl.O=C(CN1CCN(C2CCCCC2)CC1)Nc1cccc2ccccc12,4.28
10,Br.O=C(CN1CCCCC1)c1ccccc1Cl,1.65
11,O=C(NNC(=O)c1cccs1)Nc1cccc(Cl)c1,3.77
12,COc1cc(OC)c(NC(=O)CCc2nc(-c3cccs3)no2)cc1Cl,12.6
13,COc1ccc(NC(=O)C2CCN(S(=O)(=O)c3cccc4nonc34)CC2)c(OC)c1,9.22
14,COc1ccc(C(CNC(=O)c2cccc(NS(=O)(=O)c3ccc(Br)cc3)c2)N(C)C)cc1 (stereo not shown),-9.93
15,CN(C)S(=O)(=O)c1cccc(C(=O)N(Cc2ccc(F)cc2)Cc2ccco2)c1,-14.6
16,NC(N)=N/N=C/c1cn(-c2ccccc2)nc1-c1cccs1.O=[N+]([O-])O,1.72
17,COc1cc(N2N=C(c3ccccc3)CC2c2ccccc2)c(C=O)cc1C=O (stereo not shown),10.7
18,NS(=O)(=O)c1ccc(CNC(=S)NC2CCCCC2)cc1,14.5
19,Cc1noc(C)c1CN(C(=S)NC(C)C)c1ccccc1,27.5
